Laboratory results taken from article PMC9911399, “Two distinct binding modes provide the RNA-binding protein RbFox with extraordinary sequence specificity”.
Positions count from the first letter of the chain named. This is one part of the list.

T1: RBFOX1 RRM (Homo sapiens, UniProt Q9NWB1 109-208)
T1 sequence: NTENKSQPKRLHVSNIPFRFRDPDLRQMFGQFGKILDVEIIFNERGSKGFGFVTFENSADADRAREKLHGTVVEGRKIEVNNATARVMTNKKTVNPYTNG

B1: UACUGCA (DNA:RNA)
RNA: GGGAGACCGGAAUUCAGAUUGUCCUACUGCAUUAAAUCCCGUCGUAGCCACCA
DNA 1: CAATCTGAATTCCGGTCTCCC
DNA 2: TGGTGGCTACGACGGGATT
B2: AAAGCGA (DNA:RNA)
RNA: B1 RNA with U25A, C27A, U28G, G29C, C30G
DNA 1: CAATCTGAATTCCGGTCTCCC
DNA 2: TGGTGGCTACGACGGGATT
B3: GUAACGU (DNA:RNA)
RNA: GGGAGACCGGAAUUCAGAUUGUCCGUAACGUUUAAAUCCCGUCGUAGCCACCA
DNA 1: CAATCTGAATTCCGGTCTCCC
DNA 2: TGGTGGCTACGACGGGATT
B4: AAAUCUA (DNA:RNA)
RNA: B1 RNA with U25A, C27A, G29C, C30U
DNA 1: CAATCTGAATTCCGGTCTCCC
DNA 2: TGGTGGCTACGACGGGATT
B5: UGUCUGG (DNA:RNA)
RNA: B3 RNA with G25U, U26G, A27U, A28C, C29U, U31G
DNA 1: CAATCTGAATTCCGGTCTCCC
DNA 2: TGGTGGCTACGACGGGATT
B6: UCCCGCG (DNA:RNA)
RNA: B1 RNA with A26C, U28C, A31G
DNA 1: CAATCTGAATTCCGGTCTCCC
DNA 2: TGGTGGCTACGACGGGATT
B7: AGUUUCU (DNA:RNA)
RNA: B1 RNA with U25A, A26G, C27U, G29U, A31U
DNA 1: CAATCTGAATTCCGGTCTCCC
DNA 2: TGGTGGCTACGACGGGATT
B8: CUUCAAU (DNA:RNA)
RNA: B3 RNA with G25C, A27U, A28C, C29A, G30A
DNA 1: CAATCTGAATTCCGGTCTCCC
DNA 2: TGGTGGCTACGACGGGATT
B9: GGGUAAU (DNA:RNA)
RNA: B3 RNA with U26G, A27G, A28U, C29A, G30A
DNA 1: CAATCTGAATTCCGGTCTCCC
DNA 2: TGGTGGCTACGACGGGATT
B10: GUCACUG (DNA:RNA)
RNA: B3 RNA with A27C, G30U, U31G
DNA 1: CAATCTGAATTCCGGTCTCCC
DNA 2: TGGTGGCTACGACGGGATT
B11: CCGUCCU (DNA:RNA)
RNA: B3 RNA with G25C, U26C, A27G, A28U, G30C
DNA 1: CAATCTGAATTCCGGTCTCCC
DNA 2: TGGTGGCTACGACGGGATT
B12: AGCCGCU (DNA:RNA)
RNA: B1 RNA with U25A, A26G, U28C, A31U
DNA 1: CAATCTGAATTCCGGTCTCCC
DNA 2: TGGTGGCTACGACGGGATT
B13: GAGUACG (DNA:RNA)
RNA: B1 RNA with U25G, C27G, G29A, A31G
DNA 1: CAATCTGAATTCCGGTCTCCC
DNA 2: TGGTGGCTACGACGGGATT
B14: GAAGCAC (DNA:RNA)
RNA: B3 RNA with U26A, A28G, G30A, U31C
DNA 1: CAATCTGAATTCCGGTCTCCC
DNA 2: TGGTGGCTACGACGGGATT
B15: CCCUCAA (DNA:RNA)
RNA: B1 RNA with U25C, A26C, G29C, C30A
DNA 1: CAATCTGAATTCCGGTCTCCC
DNA 2: TGGTGGCTACGACGGGATT
B16: CGUUUCU (DNA:RNA)
RNA: B1 RNA with U25C, A26G, C27U, G29U, A31U
DNA 1: CAATCTGAATTCCGGTCTCCC
DNA 2: TGGTGGCTACGACGGGATT
B17: AACUAGC (DNA:RNA)
RNA: B1 RNA with U25A, G29A, C30G, A31C
DNA 1: CAATCTGAATTCCGGTCTCCC
DNA 2: TGGTGGCTACGACGGGATT
B18: AAUGCGA (DNA:RNA)
RNA: B3 RNA with G25A, U26A, A27U, A28G, U31A
DNA 1: CAATCTGAATTCCGGTCTCCC
DNA 2: TGGTGGCTACGACGGGATT
B19: GGAACAC (DNA:RNA)
RNA: B3 RNA with U26G, G30A, U31C
DNA 1: CAATCTGAATTCCGGTCTCCC
DNA 2: TGGTGGCTACGACGGGATT
B20: AUCAAAG (DNA:RNA)
RNA: B3 RNA with G25A, A27C, C29A, G30A, U31G
DNA 1: CAATCTGAATTCCGGTCTCCC
DNA 2: TGGTGGCTACGACGGGATT
B21: UUUCAUG (DNA:RNA)
RNA: B3 RNA with G25U, A27U, A28C, C29A, G30U, U31G
DNA 1: CAATCTGAATTCCGGTCTCCC
DNA 2: TGGTGGCTACGACGGGATT
B22: GUCGUCU (DNA:RNA)
RNA: B3 RNA with A27C, A28G, C29U, G30C
DNA 1: CAATCTGAATTCCGGTCTCCC
DNA 2: TGGTGGCTACGACGGGATT
B23: ACCCUUC (DNA:RNA)
RNA: B1 RNA with U25A, A26C, U28C, G29U, C30U, A31C
DNA 1: CAATCTGAATTCCGGTCTCCC
DNA 2: TGGTGGCTACGACGGGATT
B24: GGCCGAG (DNA:RNA)
RNA: B1 RNA with U25G, A26G, U28C, C30A, A31G
DNA 1: CAATCTGAATTCCGGTCTCCC
DNA 2: TGGTGGCTACGACGGGATT
B25: ACUAAUA (DNA:RNA)
RNA: B3 RNA with G25A, U26C, A27U, C29A, G30U, U31A
DNA 1: CAATCTGAATTCCGGTCTCCC
DNA 2: TGGTGGCTACGACGGGATT
B26: GUUGGCU (DNA:RNA)
RNA: B3 RNA with A27U, A28G, C29G, G30C
DNA 1: CAATCTGAATTCCGGTCTCCC
DNA 2: TGGTGGCTACGACGGGATT
B27: GCGUGGG (DNA:RNA)
RNA: B3 RNA with U26C, A27G, A28U, C29G, U31G
DNA 1: CAATCTGAATTCCGGTCTCCC
DNA 2: TGGTGGCTACGACGGGATT
B28: AGAUCUC (DNA:RNA)
RNA: B3 RNA with G25A, U26G, A28U, G30U, U31C
DNA 1: CAATCTGAATTCCGGTCTCCC
DNA 2: TGGTGGCTACGACGGGATT
B29: CGUAUGC (DNA:RNA)
RNA: B3 RNA with G25C, U26G, A27U, C29U, U31C
DNA 1: CAATCTGAATTCCGGTCTCCC
DNA 2: TGGTGGCTACGACGGGATT
B30: CGGUUGC (DNA:RNA)
RNA: B3 RNA with G25C, U26G, A27G, A28U, C29U, U31C
DNA 1: CAATCTGAATTCCGGTCTCCC
DNA 2: TGGTGGCTACGACGGGATT
B31: AAGAAUU (DNA:RNA)
RNA: B3 RNA with G25A, U26A, A27G, C29A, G30U
DNA 1: CAATCTGAATTCCGGTCTCCC
DNA 2: TGGTGGCTACGACGGGATT

Target: T1, RBFOX1 RRM
Test: EMSA; HiTS-Eq, 1 nM pool, 10 min; buffer printed only for the single-RNA assays: 10 mM Tris pH 7.5, 150 mM NaCl, 3.4 mM EDTA, 0.001% NP-40, 30 C
Conditions: tags: His6 N-terminal (pET28a); label: 5' 32P
Summary of the method: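 Purified RbFox RRM (wild type or mutant) was equilibrated for 10 min in 50 µL with 1 nM of a 5′-radiolabelled pool of RNA with 7 randomized nucleotides, its flanks annealed to DNA oligonucleotides, across increasing protein concentrations. Free RNA was separated by 8% native PAGE, excised, reverse-transcribed, PCR-barcoded and sequenced on an Illumina HiSeq 2500. Relative association constants came from read-count changes of each variant against the control reaction, normalised to the cognate motif.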

Which binding signal does the source give for B1 here?
The binding signal was 0.0178 KA relative to UGCAUGU.

B2 was tested. Which binding signal did it give?
Its binding signal is 0.0057 KA relative to UGCAUGU.

With B3 as the binder, how does the binding signal read?
The binding signal was 0.0104 KA relative to UGCAUGU.

How did the binding signal turn out when B4 was run?
The binding signal was 0.00218 KA relative to UGCAUGU.

How did the binding signal turn out when B5 was run?
Its binding signal is 0.031 KA relative to UGCAUGU.

Which binding signal does the source give for B6 here?
Its binding signal is 0.00158 KA relative to UGCAUGU.

For B7, which binding signal is on record?
Its binding signal is 0.0077 KA relative to UGCAUGU.

How did the binding signal turn out when B8 was run?
The binding signal was 0.00338 KA relative to UGCAUGU.

Which binding signal does the source give for B9 here?
Its binding signal is 0.0136 KA relative to UGCAUGU.

How did the binding signal turn out when B10 was run?
Its binding signal is 0.0171 KA relative to UGCAUGU.

How did the binding signal turn out when B11 was run?
The binding signal was 0.00583 KA relative to UGCAUGU.

Which binding signal does the source give for B12 here?
Its binding signal is 0.00308 KA relative to UGCAUGU.

With B13 as the binder, how does the binding signal read?
Its binding signal is 0.0132 KA relative to UGCAUGU.

For B14, which binding signal is on record?
Its binding signal is 0.0112 KA relative to UGCAUGU.

B15 was tested. Which binding signal did it give?
The binding signal was 0.00605 KA relative to UGCAUGU.

How did the binding signal turn out when B16 was run?
Its binding signal is 0.0116 KA relative to UGCAUGU.

For B17, which binding signal is on record?
The binding signal was 0.00452 KA relative to UGCAUGU.

How did the binding signal turn out when B18 was run?
The binding signal was 0.00943 KA relative to UGCAUGU.

With B19 as the binder, how does the binding signal read?
Its binding signal is 0.0079 KA relative to UGCAUGU.

With B20 as the binder, how does the binding signal read?
Its binding signal is 0.00193 KA relative to UGCAUGU.

With B21 as the binder, how does the binding signal read?
The binding signal was 0.0161 KA relative to UGCAUGU.

With B22 as the binder, how does the binding signal read?
The binding signal was 0.014 KA relative to UGCAUGU.

Which binding signal does the source give for B23 here?
The binding signal was 0.000934 KA relative to UGCAUGU.

How did the binding signal turn out when B24 was run?
The binding signal was 0.0143 KA relative to UGCAUGU.

How did the binding signal turn out when B25 was run?
Its binding signal is 0.00101 KA relative to UGCAUGU.

For B26, which binding signal is on record?
Its binding signal is 0.0265 KA relative to UGCAUGU.

How did the binding signal turn out when B27 was run?
The binding signal was 0.0174 KA relative to UGCAUGU.

Which binding signal does the source give for B28 here?
The binding signal was 0.00709 KA relative to UGCAUGU.

B29 was tested. Which binding signal did it give?
Its binding signal is 0.014 KA relative to UGCAUGU.

With B30 as the binder, how does the binding signal read?
Its binding signal is 0.0256 KA relative to UGCAUGU.

Which binding signal does the source give for B31 here?
Its binding signal is 0.00388 KA relative to UGCAUGU.
